# Patent publication US20090196917A1, “Liposomal Formulations of Hydrophobic Lactone Drugs in the Presence of Metal Ions” (University of Kentucky Research Foundation, priority 2008, published 2009)
# System: Non-small cell lung cancer (H460) tumor
# Assay: Efficacy of DB-67 in non-small cell lung cancer (H460) xenografts in mice
# Conditions: protracted intravenous dosing, 2.5-7.5 mg/kg/day, 5-15 days per 21 day cycle
smiles,measurement,value
"CC[C@@]1(O)C(=O)OCc2c1cc1n(c2=O)Cc2c-1nc1ccc(O)cc1c2[Si](C)(C)C(C)(C)C [DB-67, silatecan 7-t-butyldimethylsilyl-10-hydroxycamptothecin]","treatment of non-small cell lung cancer (H460) in mice (tumor volume, survival)",effective
